Results: PubChem BioAssay AID686979 (National Center for Advancing Translational Sciences (NCATS), 2013)
Screen size: about 420,000 compounds; about 50,000 (12%) were called active. Inconclusive results, whose numbers are uncertain, are shown with a selection of clear calls. Calls follow the shape of the dose curve; as a rule, active = well fitted inhibition curve with a large enough effect; inconclusive = small, poorly fitted or top-dose-only effect; inactive = flat fitted curve, though single readings scatter. Potencies of inconclusive entries are left out as doubtful fits.

assay: qHTS for Inhibitors of human tyrosyl-DNA phosphodiesterase 1 (TDP1): qHTS in cells in presence of CPT; settings: chicken DT40 Tdp1-/-;hTDP1 cells + 20 nM CPT, ATP luminescence, 48 h; activity change, negative = growth inhibition: at 46.2 µM (top of the series); also: nearly all actives have a fitted effect of over 55% in size
In short: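 Cell growth measured by CellTiter-Glo luminescence after a minimum 48 h, 37 C compound exposure with 20 nM CPT in Tdp1-knockout DT40 cells stably expressing hTDP1, seeded 400/well; qHTS titration format.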
% is scaled to controls: 0 for no effect and ±100 for the full control effect; potency is read from the fitted curve at half-maximal effect; tags tell the direction and shape of the fitted curve.

Structure (SMILES) | Potency | activity change, negative = growth inhibition
CCOc1cc(N2CCOCC2)c(OCC)cc1NC(=O)COC(=O)c1ccccc1C | inconclusive [inhibitor, single point] | –
CCOc1ccc(C(NC(=O)c2ccco2)c2ccc(OC)c(OC)c2)cc1 (stereo not given) | inactive | –
COc1cccc(-c2nc(-c3ccc4c(c3)NC(=O)CO4)cs2)c1 | active: 8.2 µM | –
CC(C)c1nc(CNC(=O)C2CCC(=O)N(CCc3cccc(F)c3)C2)cs1 (stereo not given) | inconclusive [inhibitor, single point] | –
COc1ccc(Br)cc1CNc1ccc(O)cc1 | inconclusive [inhibitor, partial curve] | –
O=C(O)c1cnn(-c2nc(-c3ccc(Cl)c(Cl)c3)cs2)c1C(F)(F)F | inconclusive [inhibitor, single point] | –
O=C1c2cccc3cccc(c23)C(=O)N1CCN1CCN(CC(O)COCc2ccc(Cl)cc2)CC1 (stereo not given) | active: 8.2 µM | –
CC(=C/c1ccccc1)/C=N/n1c(-c2ccncc2)n[nH]c1=S | inconclusive [inhibitor, single point] | –
COc1ccc(S(=O)(=O)Nc2cc(C)nn2-c2ccccc2)cc1 | inactive | –
CCN(CC)c1ccc(/C=N/NC(=O)Cc2nnc(NC(=O)Nc3ccccc3)s2)cc1 | inconclusive [inhibitor, single point] | –
CN(C)C(=O)c1ccc(-c2nc(N(C)Cc3ccco3)c3ccccc3n2)cc1 | inconclusive [inhibitor, single point] | –
COc1ccccc1-c1ccc([C@@H]2C[C@H]3[C@@H](CN2)CON3C)cc1 | inactive | –
CCOc1ccc(Nc2nc(N)nc(CSC(=S)N3CCOCC3)n2)cc1 | inconclusive [inhibitor, single point] | –
CCOc1cccc(CN2CCC(n3nccc3NC(=O)CCCc3ccccc3)CC2)c1 | inconclusive [inhibitor, single point] | –
CC(C)(C)N(Cc1ccccc1)C(=O)COC(=O)C1CCCCC1 | inactive | –
COC(=O)c1cccc(S(=O)(=O)N(Cc2ccco2)Cc2cc3cc(OC)c(OC)cc3[nH]c2=O)c1 | – | inconclusive: -31.6% [inhibitor]
Cc1sc2nc(CSCC(=O)Nc3ccc(C(F)(F)F)cc3)[nH]c(=O)c2c1C | inconclusive [inhibitor, partial curve, poor fit] | –
NC(=O)[C@@H]1CCCN1Cc1nc(Cc2ccccc2Cl)no1 | inactive | –
CCOC(=O)C1(Cc2ccccc2)CCCN(Cc2cccc(C(C)=O)c2)C1 (stereo not given) | inconclusive [inhibitor, single point] | –
COc1ccc(NC(=O)CSc2cc(-c3ccccc3)nc(C)n2)cc1 | inconclusive [inhibitor, partial curve] | –
OC(c1ccc(F)cc1)c1nc(-c2ccncc2)cs1 (stereo not given) | active: 7.31 µM | –
Cc1cccc(CNc2cc(-c3ccccc3CN(C)C)ncn2)c1 | inconclusive [inhibitor, single point] | –
Cc1nn(CC(=O)Nc2ccccc2F)c(=O)c2c(C)n(-c3ccc(Cl)cc3)nc12 | active: 23.1 µM | –
CC(O)c1nc2ccccc2[nH]1 (stereo not given) | inactive | –

Structure (SMILES) | Potency | activity change, negative = growth inhibition
COc1cccc(-c2csc(N3CCN(C(=S)Nc4ccc(Cl)cc4)CC3)n2)c1 | inconclusive [inhibitor, single point] | –
CCN1CCN(c2c(S(=O)(=O)c3ccc(C)c(C)c3)cnc3ccc(F)cc23)CC1 | inconclusive [inhibitor, single point] | –
CCN(C(=O)CSc1nc2ccc(Cl)cc2[nH]1)C1CCS(=O)(=O)C1 (stereo not given) | inactive | –
O=C(CSc1nnc(-c2ccccc2)n1Cc1ccco1)Nc1ccc(S(=O)(=O)N2CCCC2)cc1 | inconclusive [inhibitor, single point] | –
CC(=O)c1ccc(Nc2cc(C)nc3ccc(C)cc23)cc1 | inconclusive [inhibitor, single point] | –
O=C(CSc1nnc(C2COc3ccccc3O2)o1)N1CCCC1 (stereo not given) | inactive | –
CN(C)CCCNC(=O)C[C@H]1C[C@H](C(=O)N2CCOCC2)[C@@]2(CCC3CCCC3)c3[nH]c4cc(CCC(=O)N(C)C)ccc4c3CCN2C1=O | inactive | –
Fc1ccccc1CSc1nnc(Cn2cnc3ccccc32)n1-c1ccccc1 | inactive | –
CC(C)(C)c1ccc(C(=O)O[C@H]2[C@H](Cc3ccccc3)NS(=O)(=O)[C@H]3C[C@@H]4C=C[C@]23O4)cc1 | inconclusive [inhibitor, single point] | –
O=c1c2cc3c(cc2[nH]c(=S)n1C1CCN(Cc2ccccc2)CC1)OCO3 | active: 25.9 µM | –
CCCN(CCC)C(=O)Cn1c(=O)n(-c2ccc(OC)cc2)c(=O)c2ccc(C(=O)NCc3ccc(C)cc3)cc21 | inconclusive [inhibitor, single point] | –
CCOC(=O)C1=C(CCc2ccccc2)NC(=O)NC1c1ccc(Br)cc1 (stereo not given) | inconclusive [inhibitor, single point] | –
Cc1noc(C)c1-c1nccc(NCCN2CCOCC2)n1 | inconclusive [inhibitor, single point] | –
CN(C)/C=C/C=C1C(=O)CCCC1=O | inactive | –
O=C(Nc1ccc(C(=O)N2CCOCC2)cc1)Nc1cccc(Cl)c1 | inconclusive [inhibitor, partial curve, poor fit] | –
O=C(O)C1C2C=CC(C2)C1C(=O)NCc1ccc2c(c1)OCO2 (stereo not given) | inactive | –
O=C(c1ccc2nc(-c3ccccc3)c(-c3ccccc3)nc2c1)N1CCCCC1 | inconclusive [inhibitor, single point] | –
CCOC(=O)CSc1nnc(CNC(=O)c2ccc(OC)cc2)n1C1CCCCC1 | – | inconclusive: -3.05% [inhibitor]
S=C(Nc1ccccc1)Nc1ccc(Cl)cn1 | active: 23.1 µM | –
CCOC(=O)C1CCN(C(=O)CN2c3ccc(CC)cc3-c3ccccc3S2(=O)=O)CC1 | inconclusive [inhibitor, single point] | –
CCOC(=O)C1CCN(C(=O)C2CCN(S(=O)(=O)c3cc(Cl)ccc3Cl)CC2)CC1 | inconclusive [inhibitor, single point] | –
c1ccc2c(c1)NC1(CCCC1)n1c-2nc2ccccc21 | inconclusive [inhibitor, partial curve] | –
CCS(=O)(=O)c1ncc(N(Cc2ccc(F)cc2)Cc2ccco2)c(C(=O)Nc2cc(C)ccc2C)n1 | inconclusive [inhibitor, single point] | –
Cc1csc(CN(C)C(=O)CC2C(=O)NCCN2Cc2ccc(F)c(F)c2)n1 (stereo not given) | inactive | –

Structure (SMILES) | Potency | activity change, negative = growth inhibition
Cc1cc(C(=O)COC(=O)C2=COCCO2)c(C)n1-c1ccc2c(c1)OCO2 | inconclusive [inhibitor, single point] | –
CCC(=O)Nc1ccc2nc(SCCOc3ccc(C)cc3)sc2c1 | inconclusive [inhibitor, single point] | –
CC1CC(C)CN(C(=O)CN2CCN(Cc3ccc(Cl)cc3)C2=O)C1 (stereo not given) | inconclusive [inhibitor, single point] | –
Cc1ccc(C)c(Cn2c(C(C)O)nc3ccccc32)c1 (stereo not given) | inconclusive [inhibitor, single point] | –
O=C(CCNC(=O)c1ccco1)Nc1ccc(Cl)cc1F | inactive | –
COc1ccc(N(CC2CO2)S(=O)(=O)c2ccc(C)cc2)cc1 (stereo not given) | inconclusive [inhibitor, single point] | –
Cc1ccc(NC(=O)C2CCN(S(=O)(=O)c3cccc(C(F)(F)F)c3)CC2)nc1 | inactive | –
Cn1nnc2c[n+](CC(=O)c3ccc4ccccc4c3)cc(Br)c21 | inconclusive [inhibitor, single point] | –
O=C(NCc1ccccc1)C(=O)NCC(c1ccco1)N1CCOCC1 (stereo not given) | inactive | –
O=C(O)C1(Cc2nc3ccccc3[nH]2)CCCC1 | – | inconclusive: -15.8% [inhibitor]
Cc1cc(=O)oc2ccc(OCC(=O)N3CCC(C)CC3)cc12 | inconclusive [inhibitor, single point] | –
Cc1ccc(S(=O)(=O)NC2=C(N3CCN(Cc4ccccc4)CC3)C(=O)c3ccccc3C2=O)cc1 | active: 23.1 µM | –
O=C1/C(=C/c2cccnc2)SC(=S)N1c1ccc(F)cc1 | inconclusive [inhibitor, single point] | –
CC(CCc1ccccc1)NC(=O)COC(=O)C12CC3CC(CC(Br)(C3)C1)C2 (stereo not given) | inconclusive [inhibitor, full curve, poor fit] | –
O=C(Nc1ccc2c(c1)OCCO2)C(C1CC1)N1CCC(Cc2ccccc2)CC1 (stereo not given) | inconclusive [inhibitor, single point] | –
CCOC(=O)C1CCCN(C(=O)c2ccc(-n3ccc4ccccc43)s2)C1 (stereo not given) | active: 18.4 µM | –
COc1cc(Nc2nc3ccc(Cl)cc3n3cnnc23)cc(OC)c1OC | active: 20.6 µM | –
Cc1nc(C2CCCCC2)c(-c2ccccc2)c(N2CCOC2=O)c1C | inconclusive [inhibitor, single point] | –
OC(c1cc(Cl)cc(Cl)c1)c1ncc(-c2ccccc2C(F)(F)F)[nH]1 (stereo not given) | inconclusive [inhibitor, single point] | –
O=S(=O)(NCCc1csc(-c2cccnc2)n1)c1cccs1 | inconclusive [inhibitor, single point] | –
CC(CCc1ccccc1)NC(=O)Cc1cccs1 (stereo not given) | inactive | –
Cc1ccc(NC(=O)c2ccc(N3CCOCC3)c([N+](=O)[O-])c2)cc1S(=O)(=O)N1CCOCC1 | active: 9.2 µM | –
